Enrichment ratio data for 153 variants are collected here from a collection of fitness landscapes (doi:10.1126/science.1257360).

B1: PhoQ; a variant is named by its letters at X, in order, P23837 (parent)
chain: MKKLLRLFFPLSLRVRFLLATAAVVLVLSLAYGMVALIGYSVSFDKTTFRLLRGESNLFYTLAKWENNKLHVELPENIDKQSPTMTLIYDENGQLLWAQRDVPWLMKMIQPDWLKSNGFHEIEADVNDTSLLLSGDHSIQQQLQEVREDDDDAEMTHSVAVNVYPATSRMPKLTIVVVDTIPVELKSSYMVWSWFIYVLSANLLLVIPLLWVAAWWSLRPIEALAKEVRELEEHNRELLNPATTRELTSLVRNLNRLLKSERERYDKYRTTLTDLTHSLKTPLXXLQXXLRSLRSEKMSVSDAEPVMLEQISRISQQIGYYLHRASMRGGTLLSRELHPVAPLLDNLTSALNKVYQRKGVNISLDISPEISFVGEQNDFVEVMGNVLDNACKYCLEFVEISARQTDEHLYIVVEDDGPGIPLSKREVIFDRGQRVDTLRPGQGVGLAVAREITEQYEGKIVAGESMLGGARMEVIFGRQHSAPKDE

Some of the results follow.

The variants in the experiment derive from B1. The experiment is described as follows: enrichment ratio after two sorts for PhoP signalling (ratio (wild type AVST 3.29)); higher = more functional. The note with it: with PhoP (E. coli).
Turning to EFIR, the enrichment ratio was no more than 0.25. On to GLNR, for which the enrichment ratio was no more than 0.25. The figure for LWMP is no more than 0.25. As for FNYW, the figure is no more than 0.25.

For the variant SKFV, the enrichment ratio was no more than 0.25.

With EIHP, the enrichment ratio was no more than 0.25. As for RYFL, the enrichment ratio is no more than 0.25. As for TKIT, the figure is 1.06.

Take DVDQ: the enrichment ratio is no more than 0.25. Take HDIC: the enrichment ratio is no more than 0.25.

For LAMS, the enrichment ratio is no more than 0.25.

With RCQI, the enrichment ratio was no more than 0.25. As for PFDY, the figure is no more than 0.25; as for SRML, 4.3; as for RHSP, no more than 0.25.

On to GPNG, for which the enrichment ratio is no more than 0.25. On to IFCL, for which the enrichment ratio is no more than 0.25. As for HFGQ, the figure is no more than 0.25; as for LWEW, no more than 0.25.

ICMH: the enrichment ratio was no more than 0.25. In the case of HTLI, the enrichment ratio stood at 0.942. As for KFCY, the figure is no more than 0.25.

Take IIPT: the enrichment ratio was no more than 0.25. For SHTD, the enrichment ratio is no more than 0.25. Consider TCKA, for which the enrichment ratio was no more than 0.25. The figure for NNCC is no more than 0.25; for YLLI it is no more than 0.25. For the variant HLMF, the enrichment ratio is no more than 0.25. The figure for PILY is no more than 0.25; for FLQG it is no more than 0.25. The figure for RHRG is no more than 0.25; for DSAK it is no more than 0.25; for GIPE it is no more than 0.25.

For DLQK, the enrichment ratio was no more than 0.25.

Turning to LTVE, the enrichment ratio is no more than 0.25. The figure for TKAW is no more than 0.25; for IAVW it is no more than 0.25; for YKCL it is 0.709.

For the variant YPQS, the enrichment ratio is no more than 0.25.

For DLFV, the enrichment ratio was no more than 0.25. Consider LWLN, for which the enrichment ratio is no more than 0.25. Consider KIPF, for which the enrichment ratio was no more than 0.25. For VHQF, the enrichment ratio was no more than 0.25.

With FVYW, the enrichment ratio was no more than 0.25. MNMN: the enrichment ratio was no more than 0.25. As to RWWF, the enrichment ratio is no more than 0.25. As for THPN, the figure is no more than 0.25.

QPSM: the enrichment ratio is no more than 0.25. Turning to VYRQ, the enrichment ratio was no more than 0.25. The figure for SQKV is no more than 0.25; for YRQY it is 1.38.

Consider ACCH, for which the enrichment ratio amounted to 8.53.

For the variant FALH, the enrichment ratio worked out at 5.48.

Consider VMVF, for which the enrichment ratio is no more than 0.25. As to IPAI, the enrichment ratio was no more than 0.25. Take FCPG: the enrichment ratio was no more than 0.25.

For the variant TIFM, the enrichment ratio was no more than 0.25.

As for VFDR, the enrichment ratio was no more than 0.25. The figure for PTGM is no more than 0.25; for KIIP it is no more than 0.25; for RLRI it is no more than 0.25.

Consider MQVF, for which the enrichment ratio is 1.6.

Turning to GLVV, the enrichment ratio is no more than 0.25.

Regarding QVKT, the enrichment ratio was no more than 0.25.

As to QHTM, the enrichment ratio was no more than 0.25. Consider LRLA, for which the enrichment ratio is no more than 0.25.

As for MAIP, the enrichment ratio was no more than 0.25. Turning to DQME, the enrichment ratio was no more than 0.25.

Regarding QPMH, the enrichment ratio was no more than 0.25. As for ATRS, the figure is no more than 0.25; as for EKVW, no more than 0.25. As to HIVP, the enrichment ratio is no more than 0.25. As for VMQL, the figure is no more than 0.25; as for RKTS, no more than 0.25. The figure for FLVV is no more than 0.25; for AFKM it is no more than 0.25; for RFSG it is no more than 0.25. As for PWYM, the figure is no more than 0.25. As for HWHP, the enrichment ratio is no more than 0.25. The figure for FHKK is no more than 0.25; for PLLQ it is no more than 0.25. The figure for NHLC is no more than 0.25.

As for SSCP, the enrichment ratio was no more than 0.25. Regarding LYPR, the enrichment ratio is 0.371. For RLFE, the enrichment ratio was no more than 0.25. As for EESP, the figure is no more than 0.25; as for IYYM, no more than 0.25.

Regarding WKPM, the enrichment ratio is no more than 0.25.

For the variant DINF, the enrichment ratio was no more than 0.25. On to NPFQ, for which the enrichment ratio was no more than 0.25. The figure for FHGY is no more than 0.25; for PNWM it is no more than 0.25; for YFFL it is no more than 0.25. On to PTKP, for which the enrichment ratio is no more than 0.25. Regarding PPVI, the enrichment ratio was no more than 0.25. As to AAVS, the enrichment ratio was no more than 0.25.

Turning to NNWC, the enrichment ratio is no more than 0.25. As for TYSR, the enrichment ratio is no more than 0.25. As for DNGW, the figure is no more than 0.25; as for RFFN, no more than 0.25. As for LGPL, the figure is no more than 0.25; as for MLEV, no more than 0.25. As for PMAM, the figure is no more than 0.25; as for ENHP, no more than 0.25.

Turning to VMLF, the enrichment ratio was no more than 0.25. As for LHMQ, the figure is no more than 0.25; as for DTHY, no more than 0.25; as for LKPY, no more than 0.25. On to MHYE, for which the enrichment ratio was no more than 0.25.

Turning to NYTN, the enrichment ratio is no more than 0.25. As for MVSD, the figure is no more than 0.25; as for NTGA, no more than 0.25; as for NCTW, no more than 0.25. TKLL: the enrichment ratio is 16.2. For the variant DYFW, the enrichment ratio was no more than 0.25. As for LNFL, the figure is no more than 0.25. The figure for LMLQ is no more than 0.25; for FHQC it is no more than 0.25; for YLSV it is 0.444. Turning to TVDY, the enrichment ratio was no more than 0.25.

On to FNLG, for which the enrichment ratio turned out to be 1.92. ARSR: the enrichment ratio is no more than 0.25. The figure for DSHW is no more than 0.25. The figure for KTVE is no more than 0.25; for SNPT it is no more than 0.25; for MMAA it is 1.87. Consider PKTQ, for which the enrichment ratio was no more than 0.25. As for GIIV, the figure is 3.44; as for FDVV, no more than 0.25; as for ANGA, no more than 0.25. As for QAAP, the figure is no more than 0.25; as for CVFY, no more than 0.25; as for GIIN, no more than 0.25. With TFLI, the enrichment ratio came out at 0.996. Regarding FKPP, the enrichment ratio was no more than 0.25. As for ETYI, the figure is no more than 0.25; as for YQLG, 7.

Turning to HDYS, the enrichment ratio is no more than 0.25. With ERFC, the enrichment ratio is no more than 0.25. The figure for IRCY is no more than 0.25; for QVTF it is no more than 0.25; for TQWE it is 11.1. With DENI, the enrichment ratio is no more than 0.25. On to HIPC, for which the enrichment ratio was no more than 0.25. Turning to AYSL, the enrichment ratio was no more than 0.25. On to YAHV, for which the enrichment ratio is no more than 0.25. The figure for VYDT is no more than 0.25.

Consider AFCY, for which the enrichment ratio was no more than 0.25. The figure for FFEY is no more than 0.25; for DMTR it is no more than 0.25; for GQSL it is no more than 0.25.

As for TTCA, the enrichment ratio worked out at 9.39. As for HSID, the figure is no more than 0.25.
